Our source for the z-score values is PubChem BioAssay AID488969 (Vanderbilt High Throughput Screening Facility, 2010).

Whole data set: some 110,000 compounds, median “z-score” near -0.1, cut for the highest 2% near 2. Some of the results follow. Active and inactive are the calls of the source.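 Rule for the calls: active = z-score in the third read window above 3 or below -3; inactive = the rest.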

The target in this assay is Metabotropic glutamate receptor 8 (Rattus norvegicus) (UniProt P70579). The assay is described as follows: mGluR8 Gi/Go-coupled signaling modulation – cell-based, rat, thallium flux, HTS, primary screen (AID 488969). The settings on record: HEK293 rat mGluR8, GIRK (G protein-gated inwardly rectifying potassium channel) thallium flux, FluoZin2; at 10 µM; stronger effect = higher value; submaximal glutamate (EC20) added with thallium.
Chain of UniProt P70579 (P70579 whole entry, looked up): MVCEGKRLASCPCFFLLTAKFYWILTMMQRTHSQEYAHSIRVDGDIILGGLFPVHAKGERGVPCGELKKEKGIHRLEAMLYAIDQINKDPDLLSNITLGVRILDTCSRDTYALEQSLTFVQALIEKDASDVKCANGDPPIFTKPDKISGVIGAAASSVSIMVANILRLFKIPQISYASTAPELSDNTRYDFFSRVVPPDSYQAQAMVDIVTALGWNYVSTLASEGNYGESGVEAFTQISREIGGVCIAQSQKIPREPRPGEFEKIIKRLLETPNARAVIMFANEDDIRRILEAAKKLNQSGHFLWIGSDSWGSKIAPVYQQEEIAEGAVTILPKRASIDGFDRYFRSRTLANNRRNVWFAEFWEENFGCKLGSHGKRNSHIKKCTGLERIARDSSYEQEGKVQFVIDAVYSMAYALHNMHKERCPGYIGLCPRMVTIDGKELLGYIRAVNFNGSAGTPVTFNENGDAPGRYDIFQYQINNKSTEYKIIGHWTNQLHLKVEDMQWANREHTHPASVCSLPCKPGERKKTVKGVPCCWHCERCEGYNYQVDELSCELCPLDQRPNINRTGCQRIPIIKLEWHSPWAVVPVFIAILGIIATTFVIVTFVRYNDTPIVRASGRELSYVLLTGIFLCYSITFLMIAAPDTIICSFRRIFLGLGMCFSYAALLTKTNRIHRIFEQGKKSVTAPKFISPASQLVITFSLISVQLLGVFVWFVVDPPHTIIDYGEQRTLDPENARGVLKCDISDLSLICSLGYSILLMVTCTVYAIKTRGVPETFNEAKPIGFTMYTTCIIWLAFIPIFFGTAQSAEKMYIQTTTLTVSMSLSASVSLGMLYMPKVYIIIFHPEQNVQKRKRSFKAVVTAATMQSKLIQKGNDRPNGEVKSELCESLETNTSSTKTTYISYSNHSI
`Cc1ccc(C(=O)N2CCN(c3cc(=O)[nH]nc3-c3ccccc3)CC2)cc1`: the z-score was -0.0168.
In the case of `O=C(NC1CCC(C(=O)O)CC1)OCc1ccccc1` (stereo not drawn), the z-score was -0.311.
Take `CC1=C(C(=O)OC(C)C)C(c2c[nH]c3ccccc23)n2ncnc2N1` (stereo not drawn): the z-score is -0.273.
Regarding `CN(C)c1ccc(/C=C2\CCCCC2=O)cc1`, the z-score was -0.138.
For `NC(=O)C1CCCN(C(=O)Nc2cccc3ccccc23)C1` (stereo not drawn), the z-score was determined as 0.107.
`CC1CCCN(CC(O)CN)C1` (stereo not drawn) came in with a z-score of 0.769.
As for `COc1cccc(/C=N/n2nnnc2N)c1OCc1ccccc1Cl`, the z-score was -0.062.
Regarding `C1CCC(OCCN2CCN(CCOC3CCCCC3)CC2)CC1`, the z-score was -0.0284.
Take `CNC(=S)N1C2CCC1CC(NC(=O)NC13CC4CC(CC(C4)C1)C3)C2` (stereo not drawn): the z-score was -0.976.
With `CCOC(=O)Nc1ccc2c(c1)N(C(=O)CCN1CCN3CCCC3C1)c1ccccc1CC2` (stereo not drawn) the figure was -0.0738; with `Cc1ccc(C)n1-n1cnc2sc(-c3ccccc3)cc2c1=O`, -0.837.
`O=c1[nH]c(SCc2n[nH]c(=S)n2-c2ccccc2)nc2sc3c(c12)CCC3`: the z-score is -1.95.
For the compound `CCN(CC)CC(=O)Nc1ccc(C)cc1Br`, the z-score was -0.354.
As for `S=C(NC1CCCCC1)N(CCc1ccccc1)CCc1ccccc1`, the z-score was -0.15.
The compound `CCOC(=O)CC1=C(C(=O)OCC)C(c2cccnc2)C(C#N)=C(N)O1` (stereo not drawn) returned a z-score of 0.236.
With `Cc1cc2c(cc1C)CSC(c1ccccc1O)SC2`, the z-score is -0.181.
Regarding `CCCC(=O)Oc1ccccc1C1SCc2cc(C)c(C)cc2CS1`, the z-score was -0.18.
`CC(C)c1cccc(C(C)C)c1NC(=O)Cn1c(=O)cnc2ccccc21` came in with a z-score of 0.939.
Take `Cc1ccc(-n2c3c(c(=O)[nH]c2=O)C(NS(=O)(=O)c2ccc(C)cc2)(C(F)(F)F)C(=O)N3)cc1` (stereo not drawn): the z-score is -0.092.
With `COc1cc(CCC(=O)N2CCN(S(=O)(=O)c3ccc(C)c(C)c3)CC2)cc(OC)c1OC` the figure was -1.6; with `CC(=O)Nc1nc2c(c3c1c(=O)oc1ccccc13)CCCCC2`, -0.32.
In turn, `Cc1cccc(C)c1NC(=O)Cn1cnc2c(=O)n(C)c(=O)n(C)c21` returned a z-score of 0.156.
With `N#Cc1cn(CC(=O)NCC2CCCO2)c2ccccc12` (stereo not drawn) the figure was 0.16; with `COc1cccc2sc(Nc3nc(-c4cc5ccccc5oc4=O)cs3)nc12`, 0.111.
`COc1ccc(C=NCC2COc3ccccc3O2)cc1OC` (stereo not drawn): the z-score is 0.0101.
`CSc1nc2nc(-c3ccccc3)cc(C(F)(F)F)n2n1` registered a z-score of 0.0884.
Regarding `COc1cc(/C=C(/C#N)c2nc3ccccc3[nH]2)ccc1OCC(=O)Nc1ccccc1C`, the z-score is -0.788.
For the compound `O=C(Nc1ccc2sc3ccccc3c(=O)c2c1)c1ccccc1Cl`, the z-score is -0.0532.
As to `O=C(c1cccc(C(F)(F)F)c1)N1CCN(C2CCCCC2)CC1`, the z-score was 0.215.
For the compound `COc1ccc(NC(=S)N2CCC(c3nc4ccc(Cl)cc4[nH]3)CC2)c(OC)c1`, the z-score was -0.576.
For the compound `Cc1ccc(NC(=O)c2cncc(Br)c2)cc1S(=O)(=O)N(C)C`, the z-score is -0.106.
In the case of `O=C(Nc1ccccc1SCC1CSc2nc3ccccc3c(=O)n21)c1cccc(Cl)c1` (stereo not drawn), the z-score is -0.742.
Turning to `C=CCSc1ccsc1C(=O)O`, the z-score was determined as 0.112.
To `COc1cc(-c2nc(-c3ccccc3)c(-c3cc([N+](=O)[O-])ccc3C)[nH]2)cc(OC)c1OC` belongs -0.413.
Take `COC(=O)Cc1cc(=O)[nH]c(/N=C(\N)Nc2ccc(C)cc2)n1`: the z-score is -0.0949.
Take `CC1CCN(C(C(=O)Nc2ccc(C(C)C)cc2)c2ccc3c(c2)OCO3)CC1` (stereo not drawn): the z-score was -0.141.
With `CNS(=O)(=O)c1cnccc1N1CCN(c2cccc(C)c2)CC1` the figure was -0.611; with `CCOC(=O)c1nnc(-c2ccccc2)nc1Oc1ccc(Cl)cc1`, 0.0266.
On to `CNS(=O)(=O)c1cc(OC)ccc1OC`, for which the z-score was -0.202.
In the case of `C(/C=C/c1ccccc1)=N/N1CCN(c2ccccc2)CC1`, the z-score is -0.292.
Take `CCN(CC)S(=O)(=O)c1cc(NS(=O)(=O)c2cc(Cl)ccc2Cl)ccc1C`: the z-score was -0.28.
Take `Cc1c(Cc2ccccc2)sc(N)c1C(N)=O`: the z-score was 0.0645.
To `O=C(OCc1c(F)cccc1Cl)c1cnccn1` belongs 0.177; to `CCC(=O)c1ccc(O)c(CC=C(C)C)c1`, -0.107; to `COc1ccc2[nH]c(=O)c(CN(Cc3cccs3)S(=O)(=O)c3c(C)ccc4nsnc34)cc2c1`, -0.174.
On to `CCOc1cc2c(cc1OCC)C(c1ccc(OC)cc1)N(c1ccccc1)C(=O)C2` (stereo not drawn), for which the z-score is -0.547.
Take `COc1cc2c(cc1C1NC(=S)NC(C)=C1C(=O)N(C)C)CCCC2` (stereo not drawn): the z-score was -0.149.
With `COc1ccc(/C=C/C(=O)NCc2ccccn2)cc1` the figure was 0.0932; with `O=C(NC1CCCCC1)N1CCc2[nH]c3ccccc3c2C1`, -0.365.
As to `CCC(=O)Nc1ccc(OC)cc1OC`, the z-score came out at 0.733.
Consider `Cc1ccc(CNC(=O)Cn2cncn2)cc1`, for which the z-score came out at 0.00306.
For `CCOC(=O)CSc1nc(-c2ccccc2)nc2c1oc1ccccc12`, the z-score is -0.0461.
To `CCn1cc(C(=O)OCC(=O)OC2CC(C)CCC2C(C)C)c(=O)c2ccc(C)nc21` (stereo not drawn) belongs -1.11; to `O=C(CCC(=O)c1cccs1)Nc1nnc(C2CC2)s1`, 0.089.
To `Cc1csc(NC(=O)c2cc(C)oc2C)n1` belongs -0.285; to `CCC(Sc1nc(=O)cc(N)n1CCc1ccccc1)C(=O)Nc1cc(C)on1` (stereo not drawn), 0.678.
As for `O=C(CCS(=O)(=O)c1cccs1)NC1CCCCCC1`, the z-score is -1.37.
Compound `O=C(Nc1nnc(C2CCCO2)s1)c1cccs1` (stereo not drawn) yielded a z-score of 0.541.
On to `COc1cc2c(C(=O)O)c(C)n(CC(C)C)c2c2ccccc12`, for which the z-score was -0.526.
Consider `CCOC(=O)c1sc(NC(=S)NC(=O)C23CC4CC(CC(C4)C2)C3)cc1C`, for which the z-score was -0.261.
With `c1ccc(CC2=NCCN2)cc1` the figure was -0.0775.
As for `COc1ccc(-c2cnc(NCc3cc4c(cc3[N+](=O)[O-])OCO4)n2C)cc1`, the z-score was -0.0037.
For `COc1ccc(-c2nnc(SCC(=O)Nc3ccccc3OC)o2)cc1`, the z-score was 0.113.
For `c1ccc(-c2cn3c(n2)-c2ccccc2C3)cc1`, the z-score was -0.334.
With `Cc1ccc(C2CC2C(=O)NNC(=S)Nc2cccc(Cl)c2)cc1` (stereo not drawn), the z-score was active: 5.51.
With `O=C(OC1CCN(c2ncc(C(F)(F)F)cc2Cl)CC1)c1ccccc1` the figure was -0.0942.
Take `O=C(CSc1nnc(COc2cccc3ccccc23)o1)N1CCN(C(=O)c2ccco2)CC1`: the z-score is -0.249.
`Cc1cccc(Nc2nc(-c3cccs3)cs2)n1`: the z-score is -0.368.
For the compound `Cc1nnc(SCC(=O)c2ccccc2)n1Cc1ccccc1`, the z-score is -0.213.
Compound `CSc1nc(-c2ccco2)nn1C(=O)CCc1ccccc1` came in with a z-score of 0.0998.
To `CCCc1cc(C(=O)Nc2cccc(C(C)=O)c2)no1` belongs 0.29; to `CS(=O)(=O)Nc1ccc(C(=O)NCCSC2CCCCC2)cc1`, -0.246.
For `CS(=O)(=O)N(CC(=O)N1CCN(c2cccc(Cl)c2)CC1)c1cccc(F)c1`, the z-score is -1.27.
